In PubChem BioAssay (NCI) one finds growth data, which are given here for one compound.

More than one record can exist for a structure, and the calls need not agree.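 Step 1: grow cells in 96-well plates. Step 2: add test compound at a single concentration. Step 3: incubate 48 h. Step 4: record percent growth.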 For part of its entries the source gives two or more results. The other results are left out here. Rule for the calls: active = growth percent below 10; inactive = the rest. There may be further records. The screen tested this drug many times, at the concentration stated with the values; each value is one run. Counts like (3×) count equal records among those shown.

One experiment has as its system NCI-H23 lung. Briefly: NCI-60 one-dose screen, 48 h (100 = growth as untreated, 0 = no growth, -100 = all killed).
In a further experiment the test system is NCI-H226 lung. Described as above. Conditions: 0.25 µM.

Turning to `COc1cccc2c1C(=O)c1c(O)c3c(c(O)c1C2=O)C[C@@](O)(C(=O)CO)C[C@@H]3OC1CC(N)C(O)C(C)O1` (stereo not given in full), the growth entry in the experiment on NCI-H23 lung (0.25 µM, runs of 2021) was “inactive: 29.4, 36.1, 33.9, 38.5, 53, 37.5 (2×), 34.3, 34.9, 34.6, 33.1, 32.1, 39.4, 26.1, 29.2, 24.8, 22.8, 26.4, 24.9, 20.6, 26.6 (2×), 27.9, 24.6, 26.3, 30, 27.7, 34.4, 31.9, 36.4, 24, 23, 20, 25.1%”; in the experiment with NCI-H23 lung (0.25 µM, runs of 2022), “active: -11.5, -1.92, -32.7, 2.31% and inactive: 16.1, 24.7, 21, 14.9, 27.5, 23.6, 35.6, 29, 34.6 (2×), 15.6, 14.1 (2×), 15.4, 40.9, 39.6, 24.8, 39.2, 74.4, 15, 13.9%”; in the experiment with NCI-H23 lung (25 µM, runs of 1991), “active: -87.9, -84.5, -88.2, -58.7, -99.4, -94.6, -67, -76.7, -90.7, -22.3, -91.7, -70.9, -97.8, -85.9, -98.2, -95.2, -94.8%”; in the experiment on NCI-H23 lung (25 µM, runs of 1992), “active: -90.4, -77.8, -85.8, -86.4, -82.1, -97.2, -93.9, -89.5, -84.9, -87 (4×), -58.6, -63.7, -74.1, -86.8, -72.5, -89.2, -80, -91.6, -98.2 (2×), -75.2 (2×), -72.7, -65, -79.7, -50.6, -82.9 (2×), -47.4, -63.6, -41.4, -83.3, -15.6, -90.1 (2×), -95.4 (2×), -78.6, -96.4 (2×), -97.3, -98.1 (2×), -95.5, -96.7 (2×), -83.2, -73.3, -80.5, -73, -86.1, -85.7, -86.2, -95.2, -85.3, -77.7, -93.2, -92.5, -85.2 (4×), -96.1 (2×), -90.9 (2×), -89.9, -84.6, -82.4, -71.1, -98.4, -96.2, -78.2, -73.7, -91.4, -81.5, -72.1, -82.6, -71.2, -66.6, -92.4, -54.2, -100, -80.8, -45.1, -93.4, -29.4, -78.9, -94.9 (2×), -55.2, -84.8, -57.9, -59.8, -83.1, -90.6, -92, -94.2, -90.7, -41.1, -53.7, -91.1 (2×), -81.7, -94.5, -35.4, -88.2, -89.3, -66.2, -86, -97.5, -83.6, -17, -49.1, -43.6, -68.1, -89.6, -93, -90, -54, -45.9, -80.9, -94.6%”; in the experiment on NCI-H23 lung (25 µM, runs of 1993), “active: -84.3, -80.1, -33.5, -67.7, -94.9, -90.5, 4.33, -46.3, -56.3, -97.5, -94.3, -82, -82.7, -95.5, -96.2 (2×), -64.4, -47.8 (2×), -44.1, -25 (2×), -99.4, -90.1, -41.6, -61.9, -55.1, -40, -75.6, -43.5, -24.3, -51.3, -90, -49.9 (2×), -86.6, -96.8, -86.4, -73.3, -54.6, -71.1, -39.2, -70.1, -64.8, -91.4, -39.7, -69.9, -56.5% and inactive: 109%”; with NCI-H23 lung (25 µM, runs of 1994) it was “active: -65.9, 0.623, -49.9, -55.1, -94.9, -99.7, -60.2, -70.3, -84.6, -97.2, -41.9, -90, -64.3, -79.7, -51.3, -52.6, -96.3, -31.9, -16, -51.2, -63.7, -37.3, -67.8, -94.8, -13.3, -36.7, -27.2, -89.4, 5.32, -67.7, -97.3, -61.6, 1.56, -6.17%”. Also, the growth result in the experiment with NCI-H23 lung (25 µM, runs of 1995) is “active: -72.1, -83.8, -37.5, -45.9, -62.8, -66.7, -96.1, -43.4, -75.1, -56.5, -63.8, -55.8, -62.1, -84.3, -42.1, -40.7, -68.9, -78, -71.9 (2×), -100, -95.9, -73, -70.2, -53.2, -77.8, -97.6, -71.5, -54.9, -72.5, -72.6, -49.6, -82.7, -90.2, -91.8, -71.3, -74.8, -64.3, -69.6, -93.1%”; in the experiment with NCI-H23 lung (25 µM, runs of 1996) it was “active: -43.3, -74.6, -79.1, -52.4, -73.8, -90.4, -62.4, -74.8, -76, -59.5, -66.2, -94.6, -93.4, -67.4, -77, -76.8, -97.7, -75.6, -39.6, 5.09, -61.9, -97.6, -77.9, 3.67, -85.2, -58, -65.9, -54.6, -53.5, -46.4, -93.9, -87.2, -78.4, -80.4, -82, -67.1, -47.4, -98.2, -96.3, -59.8, -67, -6.17, -79.3, -2.15, -69.5, -50.4, -72.4, -65.7, -78.7, -79.8, -86, -92.8, -64.4, -78.2, -92.6% and inactive: 113%”; with NCI-H23 lung (25 µM, runs of 1997) it was “active: -71.1, -77.7, -84, -92.5, -61.6, -76.9, -21, -73.3, -78.3, -48.9, -90.3, -86 (2×), -55.3, -83.2, -49.3, -66, -55.8, -66.4, -52.1, -87.8, -79.7 (2×), -64.7 (2×), -92.2, 0.568, -71.8, -51.3, -51.5, -79.2, -68.1 (2×), -78.1, -85.1, -71.6 (2×), -73.7, -88.4 (2×), -7.29, -72.8, -82.9%”; in the experiment with NCI-H23 lung (25 µM, runs of 1998), “active: -40.8, -83.9, -7.53, -84.4, -65.2, -17.2, -30.6, -21.7, -71.6, -57.5, -65.6, -72.2 (2×), -20.4, -32.7, -58.6, -81, -46.1, -45.3, -68.3, -63.2, -48.3, -12.2, -69.9, -49.8%”; with NCI-H23 lung (25 µM, runs of 1999), “active: -69.4, -83.8, -53.4, -69, -100, -70, -95.5, -75.9, 0.0084, -15.4, -25.5, 4.41, -56.3, -1.43, 7.91% and inactive: 14.1%”; in the experiment with NCI-H23 lung (25 µM, runs of 2000) it was “active: -100% (2×), -22%, -78.1%”. Besides, the growth entry with NCI-H226 lung (runs of 2006) is “active: -21.1%, -1.96%”; in the experiment on NCI-H226 lung (runs of 2007), “active: 1.24, -2.96, -2.75, -1, -8.13, -9.41, 8.92, -4.28, 9.42, 6.15, -47.8, 9.3, -9.45% and inactive: 19.5, 20, 17.1 (2×), 26.4, 15.1, 19.2, 21.4, 17.9, 14.5, 28.9, 43.5, 34.5, 41.9, 12.8 (2×), 36.9, 50.5, 20.2, 17.7, 17.2, 41, 23.6, 17.5, 21.3, 31.7, 20.4, 14.8, 75.5, 35.6%”; in the experiment with NCI-H226 lung (runs of 2008) it was “inactive: 44.1 (2×), 32.2, 39.6, 31.9, 32, 39.5, 45.5, 39.2, 46.4, 48, 48.1, 49.9, 55.5, 33.1, 35.8, 31.8, 100, 32.7, 30.5, 38.1, 26.8, 10.2 (2×), 29.6, 23.5% and active: 8.77, -2.91, -22.7, -32.3, -43.2, -46.4, -44.9, -30.2, -36.6, -47.9, -6.66, -39.5, -16.2, 7.32, -59.1, 7.15, -52.2, 6.83, -32.9, -24.8, -51.6, -9.34, -9.97, 8.33, -9.45, -13.1, 7.72, -2.5, 2.11, -15.8, -10%”.
